First the molecules themselves.
B1: OR4K15 (parent)
chain: GUUAACGGUCAUAGGCCAUGGAAACUAGGAGCACCAUUUCGCUGCCAGUGAAGAAAUGAACAAAGAAAAUCUGGGCCAGGCAGGCAUCAAAAGAAAUAGUCUUGCGCUCAACCAGAAAGUCUGUAAUCAUUUUAAGGGUA

The source gives no read counts; variants with many changes may rest on few reads.

The results in this text go back to the RNAGym collection of RNA variant scans (doi:10.7554/elife.90254).

The data set covers variants of B1. The experiment in a line: self-cleavage, relative activity (ratio to wild type); higher = more cleavage; in vitro, sequencing; the parent is a self-cleaving ribozyme.
Regarding A23U A24G A69G A96G U124C U127C, the self-cleavage worked out at 0.42. A24C A30G U57C U130C: the self-cleavage was 0.86.

As for A24G A90G U139C, the self-cleavage was 1.03. As for A24C A36U C113A A116G, the self-cleavage worked out at 0.01. As for A24G A59U A91G U100A, the self-cleavage came out at 0.53.

In the case of A24G A56G A66G U130G, the self-cleavage came to 1.26. As for A24G A30G A56C A69G A110G U120C, the self-cleavage was found to be 0.17. Take A23G U37C U43A A86U: the self-cleavage came out at 1.18.

For the variant A23G A91G A92G U122C, the self-cleavage came to 0.91. Consider A23G U49C A82G, for which the self-cleavage stood at 0.57. For A24G A55G U122C A140G the value was 1.27; for A24G U26A A56G U120A, 1.36. Regarding A24G A78G U139C, the self-cleavage stood at 0.44. With A24G U49C A56G U97C A125G, the self-cleavage was found to be 0.33.

Turning to A23G G50A A52G A55G, the self-cleavage amounted to 1.09. In the case of A24G U37C A82G, the self-cleavage stood at 0.84.

Consider A23U U57C U127C, for which the self-cleavage was found to be 0.15. For the variant A23U U43A U132C, the self-cleavage came out at 0.96. For A24G A94C A140G, the self-cleavage was 1.23. For A24G U26A A51G A86G the value was 1.39. The result for A24G A62C A78G A91G reads 0.03; that for A23G A89G U102C, 1.31.

For the variant A24G A30G A82U A94G U108C, the self-cleavage was determined as 0.01. Turning to A23G G31A U57C, the self-cleavage came out at 0.36. Consider A23G G53A U70C, for which the self-cleavage is 0.48. In the case of A24G A52G U57C A140U, the self-cleavage is 1.35. As for A23U A36U U37C U100C U130C, the self-cleavage came out at 1.52. For A24G A82G A134G the value was 0.53; for A24G A92G A96G A114G, 0.25. In the case of A23G C45G A64G, the self-cleavage turned out to be 1.14. In the case of A24G A118C U122C U127G, the self-cleavage amounted to 0.37. Take A24G A33U A51U U133C: the self-cleavage was determined as 1.81. Regarding A24G G48A A82G, the self-cleavage was 0.42. As to A24G A55G G74U, the self-cleavage came to 0.08. Consider A23U A78G A111G, for which the self-cleavage was found to be 0.03.

As to A23G G41U A52G A67G A96C, the self-cleavage came out at 0.39. For the variant A24G A27G U70C U87C A110C A118G A134U, the self-cleavage was 0.04. For A24G A66G U102C, the self-cleavage amounted to 1.18. Regarding A24G U39C A60G, the self-cleavage came to 0.83. As to A23U A95G U108C, the self-cleavage turned out to be 0.01. In the case of A24G U37C A78C, the self-cleavage worked out at 0.41. Regarding A24G U49A A94U U122C, the self-cleavage stood at 1.87. Turning to A23G G74A A86G, the self-cleavage came to 0.1. As to A24C A59G A66U A69G A82G A90G U102C A118G, the self-cleavage amounted to 0.29. For A24G U37C A55G the value was 1.2. For A24G A30G A117G U130C the value was 1.11. With A24G A86U U132C, the self-cleavage was found to be 0.89.

Take A23U A59G U102A G138A: the self-cleavage is 0.42. For the variant A23U A111G U122C, the self-cleavage worked out at 0.02. As to A24G U43C U70C, the self-cleavage was determined as 1.51. As to A23G A96U U102C C105U A114U, the self-cleavage amounted to 0. Turning to A24G A33G G75C U124C, the self-cleavage is 0.08. The result for A24G A68G A96G reads 1.11; that for A24G U43C A69G A116G A125G U131C G136A, 0.02; that for A23G U49C U87G, 0.4. On to A23G U39A U87C, for which the self-cleavage was 1.25. For A24G A30U U39A A116G U122A, the self-cleavage was 0.34.

Consider A23G G28C U43C A63U A67G U103C G104A, for which the self-cleavage was found to be 0.05. With A24G A36G A86G, the self-cleavage amounted to 0.7.

As for A24G U37C U108A U131C, the self-cleavage amounted to 0.01. Turning to A23U A92G A95G U127C, the self-cleavage was 1.38. For the variant A23U U39C A117G U124C, the self-cleavage came out at 0.43.

A23G A92G U108C: the self-cleavage was found to be 0.08. On to A24G C35U A54G A96G U132C, for which the self-cleavage is 1.05. Consider A24G G41A U87C, for which the self-cleavage amounted to 1.15. With A23U U37C A59G A60G A111U A118G, the self-cleavage was 0.03. Take A23G U37C A64U C77U A94G: the self-cleavage was determined as 1.18. The result for A23G U37A A126G U132C reads 1.68; that for A24G A36U A56G, 0.53. For the variant A24G A68G A117G, the self-cleavage came out at 2.09. For A24G U37G G136U, the self-cleavage amounted to 1.07. With A24G A33U A60G A62G U72C G123A, the self-cleavage came out at 0.42. Turning to A23G U38C A54U, the self-cleavage is 1.32. Turning to A23G C77U U102C, the self-cleavage came to 1.05.

Consider A23G U39C U102G A125G, for which the self-cleavage came to 0.26.

With A24G A67G G75A A89G A96G U122C U132C, the self-cleavage was found to be 0.04.

For A24G U87C A91G, the self-cleavage was 0.35. For A24C U43C A51U A60G A126U the value was 1.49; for A24G A54G C85U, 0.42; for A24G A47G A55G A110G, 0.19. Turning to A24G A69G U131C, the self-cleavage stood at 0.98. A24U A62G A68G: the self-cleavage came out at 0.88. The result for A24G A68G G106C reads 0.01.
